# Reference: PMC9911399, “Two distinct binding modes provide the RNA-binding protein RbFox with extraordinary sequence specificity”
# Residue numbers refer to the chain shown, from its start. The list shows a part of the results.
# T1: RBFOX1 RRM (Homo sapiens, UniProt Q9NWB1 109-208)
# T1 sequence: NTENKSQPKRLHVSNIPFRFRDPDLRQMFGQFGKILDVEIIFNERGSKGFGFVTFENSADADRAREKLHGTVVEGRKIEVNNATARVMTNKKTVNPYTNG
# B1: UAAUGCG (DNA:RNA)
# RNA: GGGAGACCGGAAUUCAGAUUGUCCUAAUGCGUUAAAUCCCGUCGUAGCCACCA
# DNA 1: CAATCTGAATTCCGGTCTCCC
# DNA 2: TGGTGGCTACGACGGGATT
# B2: GAAGACU (DNA:RNA)
# RNA: B1 RNA with U25G, U28G, G29A, G31U
# DNA 1: CAATCTGAATTCCGGTCTCCC
# DNA 2: TGGTGGCTACGACGGGATT
# B3: ACCGAAG (DNA:RNA)
# RNA: B1 RNA with U25A, A26C, A27C, U28G, G29A, C30A
# DNA 1: CAATCTGAATTCCGGTCTCCC
# DNA 2: TGGTGGCTACGACGGGATT
# B4: GCCCUCU (DNA:RNA)
# RNA: B1 RNA with U25G, A26C, A27C, U28C, G29U, G31U
# DNA 1: CAATCTGAATTCCGGTCTCCC
# DNA 2: TGGTGGCTACGACGGGATT
# B5: UUACUGG (DNA:RNA)
# RNA: B1 RNA with A26U, U28C, G29U, C30G
# DNA 1: CAATCTGAATTCCGGTCTCCC
# DNA 2: TGGTGGCTACGACGGGATT
# B6: GCGGAAU (DNA:RNA)
# RNA: GGGAGACCGGAAUUCAGAUUGUCCGCGGAAUUUAAAUCCCGUCGUAGCCACCA
# DNA 1: CAATCTGAATTCCGGTCTCCC
# DNA 2: TGGTGGCTACGACGGGATT
# B7: CGACCAC (DNA:RNA)
# RNA: B6 RNA with G25C, C26G, G27A, G28C, A29C, U31C
# DNA 1: CAATCTGAATTCCGGTCTCCC
# DNA 2: TGGTGGCTACGACGGGATT
# B8: CGUCCCU (DNA:RNA)
# RNA: B6 RNA with G25C, C26G, G27U, G28C, A29C, A30C
# DNA 1: CAATCTGAATTCCGGTCTCCC
# DNA 2: TGGTGGCTACGACGGGATT
# B9: AGCACAG (DNA:RNA)
# RNA: B6 RNA with G25A, C26G, G27C, G28A, A29C, U31G
# DNA 1: CAATCTGAATTCCGGTCTCCC
# DNA 2: TGGTGGCTACGACGGGATT
# B10: UAAUCGG (DNA:RNA)
# RNA: B1 RNA with G29C, C30G
# DNA 1: CAATCTGAATTCCGGTCTCCC
# DNA 2: TGGTGGCTACGACGGGATT
# B11: ACUUGCG (DNA:RNA)
# RNA: B1 RNA with U25A, A26C, A27U
# DNA 1: CAATCTGAATTCCGGTCTCCC
# DNA 2: TGGTGGCTACGACGGGATT
# B12: CGUCUAA (DNA:RNA)
# RNA: B6 RNA with G25C, C26G, G27U, G28C, A29U, U31A
# DNA 1: CAATCTGAATTCCGGTCTCCC
# DNA 2: TGGTGGCTACGACGGGATT
# B13: ACAAACG (DNA:RNA)
# RNA: B1 RNA with U25A, A26C, U28A, G29A
# DNA 1: CAATCTGAATTCCGGTCTCCC
# DNA 2: TGGTGGCTACGACGGGATT
# B14: UAGUCUC (DNA:RNA)
# RNA: B1 RNA with A27G, G29C, C30U, G31C
# DNA 1: CAATCTGAATTCCGGTCTCCC
# DNA 2: TGGTGGCTACGACGGGATT
# B15: CAUCAGG (DNA:RNA)
# RNA: B1 RNA with U25C, A27U, U28C, G29A, C30G
# DNA 1: CAATCTGAATTCCGGTCTCCC
# DNA 2: TGGTGGCTACGACGGGATT
# B16: UAUAUGG (DNA:RNA)
# RNA: B1 RNA with A27U, U28A, G29U, C30G
# DNA 1: CAATCTGAATTCCGGTCTCCC
# DNA 2: TGGTGGCTACGACGGGATT
# B17: UGAUGUA (DNA:RNA)
# RNA: B1 RNA with A26G, C30U, G31A
# DNA 1: CAATCTGAATTCCGGTCTCCC
# DNA 2: TGGTGGCTACGACGGGATT
# B18: CAUACUG (DNA:RNA)
# RNA: B1 RNA with U25C, A27U, U28A, G29C, C30U
# DNA 1: CAATCTGAATTCCGGTCTCCC
# DNA 2: TGGTGGCTACGACGGGATT
# B19: GCACUAG (DNA:RNA)
# RNA: B6 RNA with G27A, G28C, A29U, U31G
# DNA 1: CAATCTGAATTCCGGTCTCCC
# DNA 2: TGGTGGCTACGACGGGATT
# B20: UUUAUAC (DNA:RNA)
# RNA: B6 RNA with G25U, C26U, G27U, G28A, A29U, U31C
# DNA 1: CAATCTGAATTCCGGTCTCCC
# DNA 2: TGGTGGCTACGACGGGATT
# Biological target: T1, RBFOX1 RRM
# Experiment: EMSA; HiTS-Eq, 1 nM pool, 10 min; buffer printed only for the single-RNA assays: 10 mM Tris pH 7.5, 150 mM NaCl, 3.4 mM EDTA, 0.001% NP-40, 30 C
# Details: tags: His6 N-terminal (pET28a); label: 5' 32P
# How it was run: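 Purified RbFox RRM, wild type or mutant, was incubated for 10 min in 50 µL with 1 nM of a 5′-radiolabelled RNA pool carrying 7 randomized nucleotides, whose flanks were annealed to DNA oligonucleotides, over a series of increasing protein concentrations. Unbound RNA was resolved on 8% native PAGE, cut out, reverse-transcribed, barcoded by PCR and sequenced on an Illumina HiSeq 2500. Relative association constants were derived from changes in read counts for each RNA species versus the control reaction and normalised to the cognate motif.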
row,Binder,binding signal
1,B1,0.0152 KA relative to UGCAUGU
2,B2,0.0105 KA relative to UGCAUGU
3,B3,0.00228 KA relative to UGCAUGU
4,B4,0.00803 KA relative to UGCAUGU
5,B5,0.0143 KA relative to UGCAUGU
6,B6,0.0175 KA relative to UGCAUGU
7,B7,0.00521 KA relative to UGCAUGU
8,B8,0.00441 KA relative to UGCAUGU
9,B9,0.00712 KA relative to UGCAUGU
10,B10,0.00839 KA relative to UGCAUGU
11,B11,0.0132 KA relative to UGCAUGU
12,B12,0.00224 KA relative to UGCAUGU
13,B13,0.0004 KA relative to UGCAUGU
14,B14,0.0162 KA relative to UGCAUGU
15,B15,0.00785 KA relative to UGCAUGU
16,B16,0.00259 KA relative to UGCAUGU
17,B17,0.0182 KA relative to UGCAUGU
18,B18,0.00506 KA relative to UGCAUGU
19,B19,0.0109 KA relative to UGCAUGU
20,B20,0.0021 KA relative to UGCAUGU
